Measured values as given in paper PMC10312975 (Research Square, 2023).
No constants are given. Whether binding was seen depends on the method and setting. For part of these data: In cells and extracts the contact can be indirect. Some results given as binding are weak or reduced against the parent protein; the word gives no strength. Blank lines part the entries; values can stand above or below the substance they belong to.

Chains of the proteins cited; added tags and fusions are not shown. Lines headed by an entry give the natural chain unless they say otherwise; changes in a name come on top.
UniProt O60826: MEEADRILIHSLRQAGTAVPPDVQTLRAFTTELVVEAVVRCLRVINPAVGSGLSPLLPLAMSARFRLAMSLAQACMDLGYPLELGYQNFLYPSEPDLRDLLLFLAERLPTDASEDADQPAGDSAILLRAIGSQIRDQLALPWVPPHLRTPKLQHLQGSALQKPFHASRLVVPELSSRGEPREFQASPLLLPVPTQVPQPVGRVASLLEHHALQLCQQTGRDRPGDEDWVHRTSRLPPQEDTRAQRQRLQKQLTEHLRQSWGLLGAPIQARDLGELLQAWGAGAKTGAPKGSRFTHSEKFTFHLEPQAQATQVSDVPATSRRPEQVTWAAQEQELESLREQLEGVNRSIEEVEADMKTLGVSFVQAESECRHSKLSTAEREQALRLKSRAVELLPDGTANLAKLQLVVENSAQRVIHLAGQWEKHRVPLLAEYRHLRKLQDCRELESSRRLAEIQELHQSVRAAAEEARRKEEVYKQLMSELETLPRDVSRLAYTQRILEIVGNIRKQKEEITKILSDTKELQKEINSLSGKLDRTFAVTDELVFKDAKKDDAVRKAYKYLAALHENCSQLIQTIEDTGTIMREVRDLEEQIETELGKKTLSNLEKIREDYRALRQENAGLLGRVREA
UniProt Q567U6: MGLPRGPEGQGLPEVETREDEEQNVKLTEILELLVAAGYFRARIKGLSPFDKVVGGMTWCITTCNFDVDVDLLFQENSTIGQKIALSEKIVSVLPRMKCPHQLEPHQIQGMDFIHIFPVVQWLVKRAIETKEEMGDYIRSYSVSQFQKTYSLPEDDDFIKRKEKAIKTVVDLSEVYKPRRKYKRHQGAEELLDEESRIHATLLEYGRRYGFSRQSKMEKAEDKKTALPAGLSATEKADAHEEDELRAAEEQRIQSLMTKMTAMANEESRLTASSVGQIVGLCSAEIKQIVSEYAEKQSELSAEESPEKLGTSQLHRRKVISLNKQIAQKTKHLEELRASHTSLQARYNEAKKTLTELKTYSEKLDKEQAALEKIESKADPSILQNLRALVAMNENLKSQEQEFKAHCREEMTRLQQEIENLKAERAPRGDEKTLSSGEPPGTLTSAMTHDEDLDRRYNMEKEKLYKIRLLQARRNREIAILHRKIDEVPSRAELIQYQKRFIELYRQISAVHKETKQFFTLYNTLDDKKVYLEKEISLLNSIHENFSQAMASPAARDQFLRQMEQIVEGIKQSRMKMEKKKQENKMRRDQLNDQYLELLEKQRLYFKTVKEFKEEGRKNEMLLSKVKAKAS
UniProt Q7Z4G1: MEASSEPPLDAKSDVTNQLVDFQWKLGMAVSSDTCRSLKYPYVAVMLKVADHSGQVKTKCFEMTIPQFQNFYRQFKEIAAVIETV
UniProt Q9NX08: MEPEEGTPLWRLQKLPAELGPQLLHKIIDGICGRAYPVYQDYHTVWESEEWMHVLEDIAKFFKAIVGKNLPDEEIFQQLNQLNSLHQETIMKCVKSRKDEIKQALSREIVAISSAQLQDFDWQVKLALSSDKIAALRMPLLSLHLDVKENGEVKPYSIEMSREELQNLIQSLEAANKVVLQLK
UniProt Q9P000: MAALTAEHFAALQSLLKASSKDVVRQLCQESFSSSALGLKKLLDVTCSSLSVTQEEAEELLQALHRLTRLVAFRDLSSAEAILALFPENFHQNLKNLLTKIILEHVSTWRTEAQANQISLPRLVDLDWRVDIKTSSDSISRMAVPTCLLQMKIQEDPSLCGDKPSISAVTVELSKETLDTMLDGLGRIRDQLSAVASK
UniProt Q9Y6G5: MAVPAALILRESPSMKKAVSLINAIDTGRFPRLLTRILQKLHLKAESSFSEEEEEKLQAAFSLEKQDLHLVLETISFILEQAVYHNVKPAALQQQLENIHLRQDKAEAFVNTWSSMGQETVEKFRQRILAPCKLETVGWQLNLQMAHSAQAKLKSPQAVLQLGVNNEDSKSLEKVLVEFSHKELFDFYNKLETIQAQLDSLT
UniProt Q9H0A8: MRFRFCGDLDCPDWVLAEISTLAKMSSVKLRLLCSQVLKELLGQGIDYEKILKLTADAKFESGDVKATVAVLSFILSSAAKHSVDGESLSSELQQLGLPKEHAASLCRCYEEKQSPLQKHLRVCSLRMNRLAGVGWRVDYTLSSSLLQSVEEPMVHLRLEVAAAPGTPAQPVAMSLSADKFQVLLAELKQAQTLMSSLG
UniProt Q9GZQ3: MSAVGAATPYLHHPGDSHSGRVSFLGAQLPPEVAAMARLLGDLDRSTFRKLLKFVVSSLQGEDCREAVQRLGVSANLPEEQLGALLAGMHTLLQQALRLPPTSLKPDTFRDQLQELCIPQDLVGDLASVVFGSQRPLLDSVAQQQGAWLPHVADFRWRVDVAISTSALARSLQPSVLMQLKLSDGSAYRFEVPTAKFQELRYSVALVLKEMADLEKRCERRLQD
UniProt Q86VX2: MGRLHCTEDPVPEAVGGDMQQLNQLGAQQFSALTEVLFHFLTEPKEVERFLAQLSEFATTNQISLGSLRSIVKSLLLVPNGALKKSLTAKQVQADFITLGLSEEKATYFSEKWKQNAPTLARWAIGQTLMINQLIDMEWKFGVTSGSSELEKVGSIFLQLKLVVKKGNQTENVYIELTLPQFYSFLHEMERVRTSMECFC

Assays:
[1] = target: CCDC22 W142D, expressed in HEK293T (human) (UniProt O60826); assay: co-IP; proteins expressed by transfection in HEK293T; Triton X-100 lysis buffer (25 mM HEPES, 100 mM NaCl, 10 mM DTT, 1 mM EDTA, 10% glycerol, 1% Triton X-100); immunoprecipitation of the expressed protein, immunoblot of partners
[2] = target: CCDC22 wild type, expressed in HEK293T (human) (UniProt O60826); assay: as above
[3] = target: CCDC22 F164D, expressed in HEK293T (human) (UniProt O60826); assay: as above
[4] = target: HA-tagged VPS35L S829E, stably expressed in VPS35L knockout Huh-7 cells (human) (UniProt Q7Z3J2); assay: native gel or EMSA; HA immunoprecipitation from stable Huh-7 lines (MRB buffer), elution with HA peptide, blue native 3-12% gel, immunoblot
[5] = target: HA-tagged VPS35L G902E, stably expressed in VPS35L knockout Huh-7 cells (human) (UniProt Q7Z3J2); assay: as above
[6] = target: HA-tagged VPS35L W6D, stably expressed in VPS35L knockout Huh-7 cells (human) (UniProt Q7Z3J2); assay: as above
[7] = target: HA-tagged VPS35L S829E, stably expressed in VPS35L knockout Huh-7 cells (human) (UniProt Q7Z3J2); assay: co-IP; VPS35L knockout Huh-7 cells stably expressing HA-tagged VPS35L variants; immunoprecipitation of VPS35L, western blot
[8] = target: HA-tagged VPS35L G902E, stably expressed in VPS35L knockout Huh-7 cells (human) (UniProt Q7Z3J2); assay: as above
[9] = target: HA-tagged VPS35L W6D, stably expressed in VPS35L knockout Huh-7 cells (human) (UniProt Q7Z3J2); assay: as above
[10] = target: VPS35L W6D, expressed in HEK293T (human) (UniProt Q7Z3J2); assay: co-IP; proteins expressed by transfection in HEK293T; Triton X-100 lysis buffer (25 mM HEPES, 100 mM NaCl, 10 mM DTT, 1 mM EDTA, 10% glycerol, 1% Triton X-100); immunoprecipitation of the expressed protein, immunoblot of partners
[11] = target: VPS35L S829E, expressed in HEK293T (human) (UniProt Q7Z3J2); assay: as above
[12] = target: VPS35L G902E (cancer-derived), expressed in HEK293T (human) (UniProt Q7Z3J2); assay: as above
[13] = target: VPS35L Δ10, expressed in HEK293T (human) (UniProt Q7Z3J2); assay: as above
[14] = target: CCDC93 E410R/F403D, expressed in HEK293T (human) (UniProt Q567U6); assay: as above
[15] = target: CCDC93 wild type, expressed in HEK293T (human) (UniProt Q567U6); assay: as above
[16] = target: CCDC93 R483E, expressed in HEK293T (human) (UniProt Q567U6); assay: as above
[17] = target: CCDC22 V501R, expressed in HEK293T (human) (UniProt O60826); assay: as above
[18] = target: CCDC22 R490D, expressed in HEK293T (human) (UniProt O60826); assay: as above
[19] = target: CCDC93 R483E/A492W, expressed in HEK293T (human) (UniProt Q567U6); assay: as above
[20] = target: CCDC93 E410R, expressed in HEK293T (human) (UniProt Q567U6); assay: as above
[21] = target: VPS35L A703W, expressed in HEK293T (human) (UniProt Q7Z3J2); assay: as above
[22] = target: HA-tagged VPS35L G325E, stably expressed in VPS35L knockout Huh-7 cells (human) (UniProt Q7Z3J2); assay: co-IP; VPS35L knockout Huh-7 cells stably expressing HA-tagged VPS35L variants; immunoprecipitation of VPS35L, western blot
[23] = target: HA-tagged VPS35L wild type, stably expressed in VPS35L knockout Huh-7 cells (human) (UniProt Q7Z3J2); assay: as above
[24] = target: VPS35L wild type, expressed in HEK293T (human) (UniProt Q7Z3J2); assay: co-IP; proteins expressed by transfection in HEK293T; Triton X-100 lysis buffer (25 mM HEPES, 100 mM NaCl, 10 mM DTT, 1 mM EDTA, 10% glycerol, 1% Triton X-100); immunoprecipitation of the expressed protein, immunoblot of partners
[25] = target: VPS35L G325E (cancer-derived), expressed in HEK293T (human) (UniProt Q7Z3J2); assay: as above
[26] = target: VPS35L lacking the first 100 amino acids, expressed in HEK293T (human) (UniProt Q7Z3J2); assay: as above
[27] = target: VPS35L, full length, untagged (subunit of recombinant Retriever) (human) (UniProt Q7Z3J2); assay: cryo-EM structure; purified Retriever, 0.25 mg/ml in 10 mM HEPES pH 7.0, 150 mM NaCl, 2 mM MgCl2, 2 mM DTT, 5% glycerol; single particle reconstruction; both purified

Substance: CCDC93 (endogenous) (from UniProt Q567U6 1-631)
- binding [1]: binds
- binding [2]: binds
- binding [3]: binds

Substance: COMMD1 (endogenous) (from UniProt Q8N668 1-190)
- binding [4]: no binding
- binding [5]: no binding
- binding [6]: no binding
- binding [7]: no binding
- binding [8]: no binding
- binding [9]: no binding
- binding [10]: no binding
- binding [1]: binds
- binding [2]: binds
- binding [11]: no binding
- binding [12]: no binding
- binding [13]: no binding
- binding [3]: no binding

Substance: COMMD6 (endogenous) (from UniProt Q7Z4G1 1-85)
- binding [1]: binds
- binding [2]: binds
- binding [3]: no binding

Substance: COMMD8 (endogenous) (from UniProt Q9NX08 1-183)
- binding [1]: binds
- binding [2]: binds
- binding [3]: no binding

Substance: COMMD9 (endogenous) (from UniProt Q9P000 1-198)
- binding [2]: binds
- binding [3]: no binding

Substance: COMMD10 (endogenous) (from UniProt Q9Y6G5 1-202)
- binding [2]: binds
- binding [3]: no binding

Substance: VPS26C, full length, untagged (subunit of recombinant Retriever) (from UniProt O14972 1-297)
- binding [27]: binds

Results, then the substance that gave them:

- binding [1]: binds
- binding [2]: binds
- binding [3]: no binding
Substance: COMMD4 (endogenous) (from UniProt Q9H0A8 1-199)

- binding [2]: binds
- binding [3]: no binding
Substance: COMMD5 (endogenous) (from UniProt Q9GZQ3 1-224)

- binding [2]: binds
- binding [3]: no binding
Substance: COMMD7 (endogenous) (from UniProt Q86VX2 1-200)

- binding [7]: no binding
- binding [8]: no binding
- binding [9]: no binding
- binding [10]: no binding
- binding [1]: binds
- binding [2]: binds
- binding [11]: no binding
- binding [12]: no binding
- binding [14]: no binding
- binding [15]: binds
- binding [16]: binds
- binding [17]: binds
- binding [18]: binds
- binding [13]: no binding
- binding [3]: binds
- binding [19]: binds
- binding [20]: binds
- binding [21]: no binding
Substance: DENND10 (endogenous) (from UniProt Q8TCE6 1-357)

- binding [7]: binds
- binding [22]: no binding
- binding [8]: binds
- binding [9]: binds
- binding [23]: binds
- binding [24]: binds
- binding [10]: binds
- binding [25]: no binding
- binding [11]: binds
- binding [26]: binds
- binding [12]: binds
Substance: VPS26C (endogenous) (from UniProt O14972 1-297)
